# Measurements published in the supplement of paper PMC4604168 (melanoma cell lines).
# Some of the results follow. Single values are uncertain, as repeats are few or missing.
# Tested on: MeWo
# Experiment: cell count relative to DMSO control; melanoma cells; higher = more viable cells
# Settings: library dose: standard library concentration; 72 h
# 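Further: cells treated in 1,536-well plates, then fixed and DAPI-stained, with nuclei counted from automated high-throughput microscope images.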
row,SMILES,cell count [%]
1,"NC(=O)c1ccc(N(C(N)=O)c2c(F)cccc2F)nc1-c1ccc(F)cc1F + O=C1NC(=O)/C(=C/c2ccc(-c3ccc(F)cc3O)o2)S1 [AS252424] (first compound 2 µM, partner dose 5 µM)",87.1
2,"NC(=O)c1ccc(N(C(N)=O)c2c(F)cccc2F)nc1-c1ccc(F)cc1F + COc1ccc(COc2ccc(Cc3cnc(N)nc3N)cc2OC)cc1 [GW2580] (first compound 2 µM, partner dose 5 µM)",83.5
3,"NC(=O)c1ccc(N(C(N)=O)c2c(F)cccc2F)nc1-c1ccc(F)cc1F + O=C(O)C(=O)Nc1sc2c(c1C(=O)O)CCNC2 [TCS401] (first compound 2 µM, partner dose 8.33333 µM)",86.9
4,"CC(C)(C)c1cnc(CSc2cnc(NC(=O)C3CCNCC3)s2)o1 + CC(C)CCN1c2nc(Nc3cc(F)c(O)c(F)c3)ncc2N(C)C(=O)C1C [BID1870] (first compound 0.05 µM, partner dose 1 µM)",73.7
5,"COc1cc2c(Oc3ccc4[nH]c(C)cc4c3F)ncnc2cc1OCCCN1CCCC1 [cediranib] + COc1ccc(-c2ccc3c(N4CCOCC4)nc(N4C[C@@H](C)O[C@@H](C)C4)nc3n2)cc1CO [KU0063794] (first compound 2 µM, partner dose 0.1 µM)",76.4
6,"CCc1ccc(CCOc2ccc(CC3SC(=O)NC3=O)cc2)nc1 (stereo unspecified) [pioglitazone] + Cn1cc(/C=C2\C(=O)Nc3cccnc32)c2ccccc21 [GW441756] (first compound 10 µM, partner dose 2 µM)",98.6
7,"NC(=O)c1ccc(N(C(N)=O)c2c(F)cccc2F)nc1-c1ccc(F)cc1F + O=c1cc(-c2cccc3c2Sc2ccccc2S3)oc(N2CCOCC2)c1 [KU55933] (first compound 2 µM, partner dose 5 µM)",79.4
8,"CN(NC(=O)CC(=O)NN(C)C(=S)c1ccccc1)C(=S)c1ccccc1 + CCc1ccc(CCOc2ccc(CC3SC(=O)NC3=O)cc2)nc1 [pioglitazone] (first compound 0.03 µM, partner dose 10 µM)",24.9
9,"NC(=O)c1ccc(N(C(N)=O)c2c(F)cccc2F)nc1-c1ccc(F)cc1F + c1cc(-c2cnn3cc(-c4ccc(OCCN5CCCCC5)cc4)cnc23)ccn1 [Dorsomorphin] (first compound 2 µM, partner dose 2 µM)",69.7
10,"Cc1ccc(NC(=O)c2cccc(N(C)C)c2)cc1NC(=O)c1ccc(O)cc1 + COc1ccc(-c2ccc3c(N4CCOCC4)nc(N4C[C@@H](C)O[C@@H](C)C4)nc3n2)cc1CO [KU0063794] (first compound 10 µM, partner dose 0.1 µM)",91.2
11,"NC(=O)c1ccc(N(C(N)=O)c2c(F)cccc2F)nc1-c1ccc(F)cc1F + CCN(CC)CCCCNc1ncc2cc(-c3cc(OC)cc(OC)c3)c(NC(=O)NC(C)(C)C)nc2n1 [PD173074] (first compound 2 µM, partner dose 0.5 µM)",99.3
12,"CCCCCCCCc1ccc(CCC(N)(CO)CO)cc1 [fingolimod] + Oc1nc(-c2ccc(C(F)(F)F)cc2)nc2c1CSCC2 [XAV939] (first compound 10 µM, partner dose 10 µM)",81.7
13,"NC(=O)c1ccc(N(C(N)=O)c2c(F)cccc2F)nc1-c1ccc(F)cc1F + COc1cc2ncnc(Nc3ccc(Oc4ccccc4)cc3)c2cc1OC [SrcI1] (first compound 2 µM, partner dose 10 µM)",67.6
14,"CCCCCCCCc1ccc(CCC(N)(CO)CO)cc1 [fingolimod] + Oc1cc(-c2nc(-c3ccccc3)[nH]c2-c2ccncc2)ccc1Cl [L779450] (first compound 10 µM, partner dose 1 µM)",19.6
15,"NC(=O)c1ccc(N(C(N)=O)c2c(F)cccc2F)nc1-c1ccc(F)cc1F + Oc1cc(-c2nc(-c3ccccc3)[nH]c2-c2ccncc2)ccc1Cl [L779450] (first compound 2 µM, partner dose 1 µM)",85.2
16,"COc1cc2c(Oc3ccc4[nH]c(C)cc4c3F)ncnc2cc1OCCCN1CCCC1 [cediranib] + COC(=O)c1sccc1S(=O)(=O)Nc1ccc(Nc2ccccc2)cc1OC [GSK0660] (first compound 2 µM, partner dose 5 µM)",77.9
